Among the data in patent US20220340642A1 (Kyowa Kirin, published 2022) are Kd, koff and kon values, retold here.

The target in assay [1] is T1, soluble recombinant of human TL1A (His6, GS linker, Leu72-Leu251) (UniProt O95150 72-251).
T1 chain: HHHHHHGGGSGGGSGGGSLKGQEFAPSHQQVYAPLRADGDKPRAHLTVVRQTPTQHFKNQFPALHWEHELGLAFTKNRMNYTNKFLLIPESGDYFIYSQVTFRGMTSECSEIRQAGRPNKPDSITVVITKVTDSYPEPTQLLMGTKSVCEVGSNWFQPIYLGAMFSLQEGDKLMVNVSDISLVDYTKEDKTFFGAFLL
As to the kind of experiment: BIAcore SPR.

Assay [2] concerns the target T2, soluble recombinant of human LIGHT (His10, GS linker, Asp74-Val240).
T2 chain: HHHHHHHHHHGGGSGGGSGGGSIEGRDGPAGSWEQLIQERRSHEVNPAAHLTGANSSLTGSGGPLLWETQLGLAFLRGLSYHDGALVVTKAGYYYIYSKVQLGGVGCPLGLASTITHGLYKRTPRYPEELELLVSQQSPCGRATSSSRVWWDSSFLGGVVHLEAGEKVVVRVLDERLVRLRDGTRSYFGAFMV
Description: BIAcore SPR. Background: Surface plasmon resonance follows binding to a sensor surface in real time, without labels.

For assay [3], the target named is T3, soluble recombinant of human FasL (His6, Pro134-Leu281) (UniProt P48023 134-281).
T3 chain: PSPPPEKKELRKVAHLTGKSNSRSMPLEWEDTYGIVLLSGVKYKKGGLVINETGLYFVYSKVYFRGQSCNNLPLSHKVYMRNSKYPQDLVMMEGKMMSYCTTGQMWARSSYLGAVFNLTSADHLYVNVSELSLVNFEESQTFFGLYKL
As to the kind of experiment: BIAcore SPR.

The target of assay [4] is T4, soluble recombinant of human FasL (His6, Pro134-Leu281) (human, UniProt P48023 134-281).
T4 sequence: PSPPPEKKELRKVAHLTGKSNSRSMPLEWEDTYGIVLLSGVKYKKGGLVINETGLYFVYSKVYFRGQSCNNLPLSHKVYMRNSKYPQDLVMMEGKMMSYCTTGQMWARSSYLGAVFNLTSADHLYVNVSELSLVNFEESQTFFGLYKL
Description: SPR, binder captured. Here is the method: (§1) Regarding each of the various wild-type DcR3 controls and the DcR3 variants shown in Table 9, the binding activities to DcR3 ligands (LIGHT, TL1A, FasL) were analyzed by the SPR method using BIAcore T-100 (GE Healthcare). As the buffer, HBS-EP+Buffer was used.
(§2) After 10,000 RU of anti-human antibodies were immobilized to Series S Sensor Chip CM5 using Human Antibody Capture Kit (GE Healthcare), various wild-type DcR3 controls and DcR3 variants were injected at the flow rate of 10 μL/min for 30 seconds and captured. Meanwhile, the buffer containing no protein was injected into reference flow cells. Thereafter, as an analyte, DcR3 ligands of a human, a cynomolgus monkey or a mouse diluted to 0.08 to 80 nmol/L were injected at 10 μL/min for 2 minutes to monitor the binding, and subsequently the buffer was injected for 3 minutes to monitor dissociation. Then, 3 mol/L magnesium chloride was injected at 20 μL/min for 1 minute to perform a regeneration reaction. […] As a result of measurement, except for mouse LIGHT for which a trimer could not be produced, it was confirmed that various wild-type DcR3 controls and DcR3 variants bind to each DcR3 ligand of a human, a cynomolgus monkey or a mouse.

The target of assay [5] is T5, soluble recombinant of human TL1A (His6, GS linker, Leu72-Leu251) (human, UniProt O95150 72-251).
T5 construct: also called His6-TL1A; hTL1A
T5 sequence: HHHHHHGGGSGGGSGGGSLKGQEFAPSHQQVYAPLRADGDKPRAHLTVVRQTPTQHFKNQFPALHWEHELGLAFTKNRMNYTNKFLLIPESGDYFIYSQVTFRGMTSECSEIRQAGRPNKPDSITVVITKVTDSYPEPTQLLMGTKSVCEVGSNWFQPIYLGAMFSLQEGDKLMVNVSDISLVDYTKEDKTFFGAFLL
Description: SPR, binder captured. How it is done: as §1, §2

The target of assay [6] is T6, soluble recombinant of human LIGHT (His10, GS linker, Asp74-Val240) (human).
T6 chain: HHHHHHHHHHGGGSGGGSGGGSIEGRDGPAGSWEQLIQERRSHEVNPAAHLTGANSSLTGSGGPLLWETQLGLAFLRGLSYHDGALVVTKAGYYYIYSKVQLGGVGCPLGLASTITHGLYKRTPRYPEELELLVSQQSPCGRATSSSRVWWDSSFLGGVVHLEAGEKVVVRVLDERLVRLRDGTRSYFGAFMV
As to the kind of experiment: SPR, binder captured. How it is done:
as §1, §2

B1: chimera A-E57V-Fc (g4PEK) (Fc fusion)
chain: ETFPPKYLHYDEETSHQLLCDKCPPGTYLKQHCTAKWKTVCAPCPPRHYTQFWNYLVRCRYCNVLCGEREEEARACHATHNRACRCRTGFFAHAGFCLEHASCPPGAGVIAPGTPSQNTQCQPCPDGFFSNETSSKAPCRKHTNCSVFGLLLTQKGNATHDNICSGNSESTQK[omitted - human IgG4 Fc with S228P L235E R409K (EU numbers)]
Usually Kd stands for the constant that tells how readily two partners part at equilibrium. On to B1, for which the Kd in assay [1] worked out at 0.25 nM; in assay [2], 0.31 nM; in assay [3], 2.3 nM.

B2: chimera A-E57R-Fc (g4PEK) (Fc fusion)
chain: ETFPPKYLHYDEETSHQLLCDKCPPGTYLKQHCTAKWKTVCAPCPPRHYTQFWNYLRRCRYCNVLCGEREEEARACHATHNRACRCRTGFFAHAGFCLEHASCPPGAGVIAPGTPSQNTQCQPCPDGFFSNETSSKAPCRKHTNCSVFGLLLTQKGNATHDNICSGNSESTQK[omitted - human IgG4 Fc with S228P L235E R409K (EU numbers)]
Consider B2, for which the Kd in assay [1] was 0.41 nM; in assay [2] it was 0.38 nM; in assay [3], 3.2 nM.

B3: chimera A-E57R_R58D-Fc (g4PEK) (Fc fusion)
chain: ETFPPKYLHYDEETSHQLLCDKCPPGTYLKQHCTAKWKTVCAPCPPRHYTQFWNYLRDCRYCNVLCGEREEEARACHATHNRACRCRTGFFAHAGFCLEHASCPPGAGVIAPGTPSQNTQCQPCPDGFFSNETSSKAPCRKHTNCSVFGLLLTQKGNATHDNICSGNSESTQK[omitted - human IgG4 Fc with S228P L235E R409K (EU numbers)]
notes: also called 82-5-Fc; variant number 82-5
As for B3, the results for the Kd in assay [1], in assay [2] and in assay [3] were 0.24 nM, 0.28 nM and 2.2 nM, respectively.

B4: T133A/S146A-Fc (g4PEK) (Fc fusion)
chain: ETFPPKYLHYDEETSHQLLCDKCPPGTYLKQHCTAKWKTVCAPCPPRHYTQFWNYLERCRYCNVLCGEREEEARACHATHNRACRCRTGFFAHAGFCLEHASCPPGAGVIAPGTPSQNTQCQPCPDGFFSNEASSKAPCRKHTNCAVFGLLLTQKGNATHDNICSGNSESTQK[omitted - human IgG4 Fc with S228P L235E R409K (EU numbers)]
As usually defined, the koff is the rate constant with which the complex falls apart. The kon is the second-order rate constant of association. B4: in assay [4], the Kd turned out to be 2.3 nM, the koff is 0.0013 s⁻¹ and the kon was 560000 M⁻¹ s⁻¹. In addition, in assay [5], the Kd came out at 0.53 nM, the koff was 0.00033 s⁻¹ and the kon was determined as 630000 M⁻¹ s⁻¹. In assay [6], the Kd worked out at 0.83 nM, the koff was 0.00031 s⁻¹ and the kon was 380000 M⁻¹ s⁻¹.

B5: N131S/N144S-Fc (g4PEK) (Fc fusion)
chain: ETFPPKYLHYDEETSHQLLCDKCPPGTYLKQHCTAKWKTVCAPCPPRHYTQFWNYLERCRYCNVLCGEREEEARACHATHNRACRCRTGFFAHAGFCLEHASCPPGAGVIAPGTPSQNTQCQPCPDGFFSSETSSKAPCRKHTSCSVFGLLLTQKGNATHDNICSGNSESTQK[omitted - human IgG4 Fc with S228P L235E R409K (EU numbers)]
notes: also called N131S/N1445-Fc (g4PEK)
In the case of B5, in assay [4], the Kd is 2.5 nM, the koff is 0.0015 s⁻¹ and the kon is 570000 M⁻¹ s⁻¹. Also, in assay [5], the Kd is 0.51 nM, the koff was 0.00031 s⁻¹ and the kon amounted to 610000 M⁻¹ s⁻¹. Further, in assay [6], the Kd was determined as 0.87 nM, the koff is 0.00033 s⁻¹ and the kon was determined as 350000 M⁻¹ s⁻¹.

B6: chimera A-E57K_R58E-Fc (g4PEK) (Fc fusion)
chain: ETFPPKYLHYDEETSHQLLCDKCPPGTYLKQHCTAKWKTVCAPCPPRHYTQFWNYLKECRYCNVLCGEREEEARACHATHNRACRCRTGFFAHAGFCLEHASCPPGAGVIAPGTPSQNTQCQPCPDGFFSNETSSKAPCRKHTNCSVFGLLLTQKGNATHDNICSGNSESTQK[omitted - human IgG4 Fc with S228P L235E R409K (EU numbers)]
notes: also called 45-18-Fc; variant number 45-18
Regarding B6, the values for the Kd in assay [1], in assay [2] and in assay [3] were 0.19 nM, 0.22 nM and 2.5 nM, respectively.

B7: 103-123OPG-Fc (g4PEK) (Fc fusion)
chain: ETFPPKYLHYDEETSHQLLCDKCPPGTYLKQHCTAKWKTVCAPCPPRHYTQFWNYLERCRYCNVLCGEREEEARACHATHNRACRCRTGFFAHAGFCLEHASCPPGFGVVQAGTPERNTVCKRCPDGFFSNETSSKAPCRKHTNCSVFGLLLTQKGNATHDNICSGNSESTQK[omitted - human IgG4 Fc with S228P L235E R409K (EU numbers)]
notes: also called 103-1230PG-Fc
For B7, the values for the Kd in assay [4], in assay [5] and in assay [6] were 1.4 nM, 0.47 nM and 0.66 nM, respectively. Besides, the koff was found to be 0.0012 s⁻¹ in assay [4], 0.00033 s⁻¹ in assay [5] and 0.0003 s⁻¹ in assay [6]. Moreover, the values for the kon in assay [4], in assay [5] and in assay [6] were 850000 M⁻¹ s⁻¹, 710000 M⁻¹ s⁻¹ and 450000 M⁻¹ s⁻¹, respectively.

B8: chimera A-E57K_R58D-Fc (g4PEK) (Fc fusion)
chain: ETFPPKYLHYDEETSHQLLCDKCPPGTYLKQHCTAKWKTVCAPCPPRHYTQFWNYLKDCRYCNVLCGEREEEARACHATHNRACRCRTGFFAHAGFCLEHASCPPGAGVIAPGTPSQNTQCQPCPDGFFSNETSSKAPCRKHTNCSVFGLLLTQKGNATHDNICSGNSESTQK[omitted - human IgG4 Fc with S228P L235E R409K (EU numbers)]
notes: also called 45-10-Fc; variant number 45-10
With B8, the figures for the Kd in assay [1], in assay [2] and in assay [3] were 0.22 nM, 0.24 nM and 2.1 nM, respectively.
